From PMC4336329 (PLoS ONE, 2015)
Hit rate of the full screen: of about 310,000 compounds, about 14,000 (4.5%) showed an effect of 50% or more. The effect is printed as a negative number. The list shows a part of the results.

target: human ether-à-go-go-related gene (hERG) potassium channel (human, UniProt Q12809); assay: primary screen, population patch clamp on CHO cells stably expressing hERG
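Also: peak tail current of the secondary pulse compared with the same well before compound.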

human ether-à-go-go-related gene (hERG) potassium channel, sequence (Q12809 whole entry, looked up): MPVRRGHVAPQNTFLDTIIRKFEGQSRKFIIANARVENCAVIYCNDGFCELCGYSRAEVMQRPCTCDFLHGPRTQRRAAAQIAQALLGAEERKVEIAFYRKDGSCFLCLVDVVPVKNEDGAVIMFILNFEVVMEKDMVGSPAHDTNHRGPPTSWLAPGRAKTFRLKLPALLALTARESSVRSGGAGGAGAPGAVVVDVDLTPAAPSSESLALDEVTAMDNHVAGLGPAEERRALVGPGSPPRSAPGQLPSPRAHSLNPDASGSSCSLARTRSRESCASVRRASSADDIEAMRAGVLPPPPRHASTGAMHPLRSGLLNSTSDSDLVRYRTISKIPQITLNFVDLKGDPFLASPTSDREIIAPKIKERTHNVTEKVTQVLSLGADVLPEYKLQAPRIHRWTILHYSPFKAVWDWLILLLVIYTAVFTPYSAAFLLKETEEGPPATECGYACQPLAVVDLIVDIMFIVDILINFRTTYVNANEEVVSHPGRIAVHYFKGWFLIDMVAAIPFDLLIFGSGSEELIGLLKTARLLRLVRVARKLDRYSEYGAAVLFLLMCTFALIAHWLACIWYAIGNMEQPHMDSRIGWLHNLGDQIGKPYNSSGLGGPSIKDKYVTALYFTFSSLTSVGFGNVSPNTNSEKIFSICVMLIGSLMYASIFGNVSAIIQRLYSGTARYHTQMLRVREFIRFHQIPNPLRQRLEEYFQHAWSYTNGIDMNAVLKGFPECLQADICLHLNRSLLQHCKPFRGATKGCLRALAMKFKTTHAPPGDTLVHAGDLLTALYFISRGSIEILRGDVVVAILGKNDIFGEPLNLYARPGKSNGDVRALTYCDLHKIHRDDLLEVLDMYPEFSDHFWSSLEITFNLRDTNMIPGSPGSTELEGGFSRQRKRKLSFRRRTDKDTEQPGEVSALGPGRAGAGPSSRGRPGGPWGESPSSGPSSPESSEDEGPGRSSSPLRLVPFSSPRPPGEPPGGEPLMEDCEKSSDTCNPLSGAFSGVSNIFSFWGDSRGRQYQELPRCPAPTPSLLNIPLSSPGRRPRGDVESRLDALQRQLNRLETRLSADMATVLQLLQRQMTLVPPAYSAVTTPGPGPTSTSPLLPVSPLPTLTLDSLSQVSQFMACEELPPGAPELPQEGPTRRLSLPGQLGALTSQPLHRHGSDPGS

SMILES	hERG current change (%, negative = inhibition) at 10uM [%]
Cc1noc(C)c1CSc1nnc(-c2ccccc2)n1N	6.27
CCN1/C(=C2\C(=O)N(C)C(=S)N2C)C=Cc2ccccc21	9.44
O=C(NC1CCCC1)C1CCC(CNS(=O)(=O)c2ccc(F)cc2)CC1 (stereo not shown)	-6.07
CCOC(=O)CSc1nc2ccc(Nc3nc(N4CCOCC4)nc(N4CCOCC4)n3)cc2s1	-0.709
CC(CC(=O)N1CCN(S(=O)(=O)c2ccccc2)CC1)n1cncn1 (stereo not shown)	20.1
COc1ccccc1/C=N/NC(=O)c1cccc(OC(F)(F)C(F)F)c1	-9.51
Cc1ccc(CSCCNC(=O)CN(c2ccc(F)cc2)S(C)(=O)=O)cc1	12.4
CN1C(=O)CC(N2CCC(C(N)=O)(N3CCCCC3)CC2)C1=O (stereo not shown)	1.9
CC(=O)Nc1ccccc1S(=O)(=O)CC1CC1(Cl)Cl (stereo not shown)	13.1
Oc1c(Br)cc(Cl)cc1C=Nc1ccc(N2CCOCC2)cc1	19.6
CSc1nnnn1-c1ccc(Cl)cc1	-0.432
Cc1ccc2[nH]c(=O)c(CN(CCCN3CCOCC3)C(=O)Nc3cccc(Cl)c3)cc2c1	-32.4
COc1ccc(C(=O)C2CCCN(S(=O)(=O)c3cccnc3)C2)c(C)c1 (stereo not shown)	-1.1
COc1ccc(/C=C(\NC(=O)c2ccccc2)C(=O)OCC2CCCN3CCCCC23)cc1OC (stereo not shown)	-40.7
CC(C)COC(=O)N1C[C@H](O)C[C@H]1C(=O)Nc1ccc(Cl)cc1	14.9
COC(=O)CSc1nnc(C)n1-c1ccc(C)cc1	8.35
O=C(CN1CCOCC1)c1ccc2cc[nH]c2c1	8.82
COc1ccc(C2(c3ccc(OC)cc3)NC(=O)N(CC(=O)N(C)C)C2=O)cc1	13.7
CC(N)Cc1ccccc1Sc1ccc(O)cc1.O=C(O)C(=O)O (stereo not shown)	-35.5
Cl.Nn1cnnc1N/N=C/c1ccccc1C(F)(F)F	32.8
COc1ccc(NS(=O)(=O)c2cc(NC(=O)c3ccc(=O)[nH]c3)ccc2C)cc1	15.1
CCc1c(C(=O)NCCc2ccc(OC)c(OC)c2)[nH]c(C)c1C(C)=O	6.35

SMILES	hERG current change (%, negative = inhibition) at 10uM [%]
Cc1ccccc1-c1nn(-c2ccc(F)cc2F)cc1CNCC(C)O (stereo not shown)	-8.07
CC(C)[C@H](NS(=O)(=O)c1ccccc1)C(=O)OCn1nnc2ccccc2c1=O	0.657
COc1ccccc1CNC(=O)c1ccc(NS(=O)(=O)c2c(C)noc2C)cc1	-5.41
O=C(c1ccncc1)c1ccc(N2CCN(C3CC(=O)N(Cc4ccccc4)C3=O)CC2)cc1 (stereo not shown)	-76.2
COc1ccccc1CCNS(=O)(=O)c1cc2c3c(c1)C(C)C(=O)N3CCC2 (stereo not shown)	-8.01
O=C(c1ccco1)N1CCN(S(=O)(=O)c2ccc(C3CCCCC3)cc2)CC1	4.54
COc1ccc(C(=O)O/N=C(\N)c2ccc(OC)c(OC)c2)c(OC)c1	-9.79
O=S(=O)(c1cccs1)N1CCN(CC(O)COC2CCCc3ccccc32)CC1 (stereo not shown)	-25.1
CN(CCOc1ccccc1Cl)Cc1ccccc1.O=C(O)C(=O)O	-15.1
CCCC(=O)Nc1c(-c2ccccc2OC)c(=O)c2ccccc2n1C	-2.53
Cc1ccc(CNC(=O)CCS(=O)(=O)c2ccc3nc(C)sc3c2)cc1	8.31
Cc1cc(C(=O)CSc2nnc(N)s2)c(C)n1CCc1ccc(Cl)cc1	-11.9
COc1cc(C(=O)OCC(=O)Nc2cc(S(=O)(=O)N3CCOCC3)ccc2C)ccc1OCC(C)C	-19.4
O=S(=O)(NCC(O)c1ccccc1)c1ccc(-c2ccccn2)s1 (stereo not shown)	8.65
CSc1ccccc1NC(=O)c1ccc(Br)o1	-15.6
COc1cccc(/C(C)=N/NC(=O)Cc2c(C)[nH][nH]c2=O)c1	4.33
CC(NC(=O)COC(=O)Cc1ccc(-c2ccccc2)cc1)c1ccccc1 (stereo not shown)	15.8
Cn1c(CCN2CCCC2)nc2cc(NS(=O)(=O)c3ccccc3)ccc21	-40.9
CCOC(=O)N1CCN(C(=O)c2ccc3c(c2)NC(=O)/C(=C\c2ccc(OC)c(OC)c2)S3)CC1	0.652
Cc1cc(C)cc(C(=O)NC(CC(N)=O)c2ccc(NC3CCCCCCCCCCC3)c([N+](=O)[O-])c2)c1 (stereo not shown)	-7.58
CCOC(=O)c1csc(NC(=O)C2=COCCO2)n1	16.5
COCCCNC(=O)CCc1c(C)nc2c(-c3ccc(F)cc3)c(C)nn2c1C	-38.5

SMILES	hERG current change (%, negative = inhibition) at 10uM [%]
CCCCC1=CC2=CC(=O)C(C)(OC(=O)CCC(=O)OC)C(=O)C2=CO1 (stereo not shown)	5.72
CCOC(=O)c1c(NC(=O)CSc2nnc(-c3ccc(C)cc3)o2)sc(C(C)=O)c1C	9.09
CC(C)C[C@@H](C(=O)NC1CCN(Cc2ccccc2)CC1)N1C(=O)N2CCc3c([nH]c4ccccc34)[C@@]2(C)C1=O	-53.2
CCOC(=O)c1sc2nc(C)nc(NCCc3ccc(S(N)(=O)=O)cc3)c2c1C	10.4
Cc1cc(C(C)(C)C)cc(C)c1S(=O)(=O)N1CCN(C(=O)c2cc([N+](=O)[O-])c[nH]c2=O)CC1	-4.17
O=C(COC(=O)c1ccncc1)c1ccc(Br)cc1	-15.3
COc1ccc2cc(C(=O)N3CCC(Cc4ccccc4)CC3)[nH]c2c1	25.5
Cc1ccc2c(c1)N(C(=O)CCC(=O)NCCN1CCOCC1)CC(C)O2 (stereo not shown)	6.88
CC(C)(C)NC(=O)C(=O)NN=C1CCCCCCCCCCC1	10.5
CC(C)(C)NC(=O)CSc1nc(O)cc(=O)[nH]1	0.43
Cc1cc(N2C(=O)C(O)=C(C(=O)c3cc4ccccc4o3)C2c2ccc([N+](=O)[O-])cc2)no1 (stereo not shown)	15.1
Cc1nnc(NC(=O)CSc2ccc(-c3ccccn3)nn2)s1	12.1
Cc1onc(-c2c(Cl)cccc2Cl)c1C(=O)NCc1ccco1	-1.44
Cc1onc(-c2ccccc2)c1C(=O)Nc1ccccc1NC(=O)c1c(-c2ccccc2)noc1C	8.33
CCN1CCCC1CNC(=O)Cn1cc2c(n1)CCC(C)C2 (stereo not shown)	5.4
COC(=O)c1c(NC(=S)NNS(=O)(=O)c2ccc(OC)cc2OC)sc2c1CCCCCC2	0.694
COCCN1C(=O)c2ccccc2C(C(=O)NCc2ccco2)C1c1c[nH]c2ccccc12 (stereo not shown)	-4.01
Cc1ccc(-c2[nH]c3ccccc3c2SCCN)cc1	-27.6
CCCOc1ccc(-c2nc(C#N)c(N3CCc4ccccc4C3)o2)cc1	-5.29
Cc1c(C(=O)N2CCOCC2)oc2ccc(S(=O)(=O)N3CCCCCC3)cc12	0.0285
Cc1ccc2c(c1)C(c1ccccc1)N(C(=O)CC(C)C)CC(=O)N2 (stereo not shown)	-28.5
CC1(C)Nc2ccccc2C(=O)N1NS(=O)(=O)c1ccccc1	14.5

SMILES	hERG current change (%, negative = inhibition) at 10uM [%]
CCC(=O)c1ccc(OCc2ccc(C(=O)OC)o2)c(OC)c1	-23.7
CC(C)CCN1CCN(CCCc2ccccc2)CC1CCO (stereo not shown)	-46.6
CC(C(=O)NC1CCCC1)N(C(=O)c1ccc(-c2ccccc2)[nH]1)c1ccccc1F (stereo not shown)	-20.1
CCC(=O)Nc1ccc(C(=O)CSc2nnc(-c3ccccc3F)n2CCc2ccccc2)cc1	3.06
CCN(CC)CCn1c(NCc2cccc(OC)c2)nc2ccccc21.Cl	-57.8
CC(=NCc1ccco1)c1c(O)n(-c2ccc(C)cc2)c(=O)[nH]c1=O	2.94
O=C(C1CC1)N1N=C(c2ccncc2)CC1(O)C(F)(F)F (stereo not shown)	21.8
Cc1nc(C)c(C(=O)C2=C(O)C(=O)N(CCN3CCOCC3)C2c2cccnc2)s1 (stereo not shown)	6.22
O=C(C1CC1)N1CCc2cc(Br)cc(S(=O)(=O)N3CCCCCC3)c21	-16.5
CNC(=O)N1CCC(C(=O)c2c(C)c(C)c(C)c(C)c2C)CC1	-4.56
CN1C(=O)Cc2cc(S(=O)(=O)NCCc3ccccc3)ccc21	-8.58
C=CCSc1nnc2c(n1)[nH]c1c(C)cccc12	-9.69
CCCc1nc2nc(C)c(NS(=O)(=O)c3ccc(F)cc3)c(=O)n2[nH]1	18.3
CC1CCN(CC(O)COC2CCC(C(C)(C)C)CC2)CC1.Cl (stereo not shown)	-46.2
CCCCC(=O)N=c1sc2cc([N+](=O)[O-])ccc2n1C	-10.4
CC(=O)N1N=C(c2ccccc2)CC1c1cn(C)c2ccccc12 (stereo not shown)	-13.2
CCOc1ccccc1N(C)C(=O)c1cn(C)c(=O)c2ccccc12	22.2
COc1cc(S(=O)(=O)Nc2ccc(C)cc2)ccc1N=Cc1c(C)c(C#N)c(=O)n(C)c1O	12.9
O=C(C1=C[C@@H](C2CC2)C[C@@H](OCCCCO)O1)N1CCN(Cc2ccc3c(c2)OCO3)CC1	-11.1
